Measurements published in paper PMC4336329 (PLoS ONE, 2015).
In all, about 310,000 compounds went through this assay and about 14,000 (4.5%) showed an effect of 50% or more. Effects have a minus sign here. The list shows a part of the results.

molecular target: human ether-à-go-go-related gene (hERG) potassium channel (human, UniProt Q12809); experiment: primary screen, population patch clamp on CHO cells stably expressing hERG
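Also: peak tail current of the secondary pulse compared with the same well before compound.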

human ether-à-go-go-related gene (hERG) potassium channel, sequence (Q12809 whole entry, looked up): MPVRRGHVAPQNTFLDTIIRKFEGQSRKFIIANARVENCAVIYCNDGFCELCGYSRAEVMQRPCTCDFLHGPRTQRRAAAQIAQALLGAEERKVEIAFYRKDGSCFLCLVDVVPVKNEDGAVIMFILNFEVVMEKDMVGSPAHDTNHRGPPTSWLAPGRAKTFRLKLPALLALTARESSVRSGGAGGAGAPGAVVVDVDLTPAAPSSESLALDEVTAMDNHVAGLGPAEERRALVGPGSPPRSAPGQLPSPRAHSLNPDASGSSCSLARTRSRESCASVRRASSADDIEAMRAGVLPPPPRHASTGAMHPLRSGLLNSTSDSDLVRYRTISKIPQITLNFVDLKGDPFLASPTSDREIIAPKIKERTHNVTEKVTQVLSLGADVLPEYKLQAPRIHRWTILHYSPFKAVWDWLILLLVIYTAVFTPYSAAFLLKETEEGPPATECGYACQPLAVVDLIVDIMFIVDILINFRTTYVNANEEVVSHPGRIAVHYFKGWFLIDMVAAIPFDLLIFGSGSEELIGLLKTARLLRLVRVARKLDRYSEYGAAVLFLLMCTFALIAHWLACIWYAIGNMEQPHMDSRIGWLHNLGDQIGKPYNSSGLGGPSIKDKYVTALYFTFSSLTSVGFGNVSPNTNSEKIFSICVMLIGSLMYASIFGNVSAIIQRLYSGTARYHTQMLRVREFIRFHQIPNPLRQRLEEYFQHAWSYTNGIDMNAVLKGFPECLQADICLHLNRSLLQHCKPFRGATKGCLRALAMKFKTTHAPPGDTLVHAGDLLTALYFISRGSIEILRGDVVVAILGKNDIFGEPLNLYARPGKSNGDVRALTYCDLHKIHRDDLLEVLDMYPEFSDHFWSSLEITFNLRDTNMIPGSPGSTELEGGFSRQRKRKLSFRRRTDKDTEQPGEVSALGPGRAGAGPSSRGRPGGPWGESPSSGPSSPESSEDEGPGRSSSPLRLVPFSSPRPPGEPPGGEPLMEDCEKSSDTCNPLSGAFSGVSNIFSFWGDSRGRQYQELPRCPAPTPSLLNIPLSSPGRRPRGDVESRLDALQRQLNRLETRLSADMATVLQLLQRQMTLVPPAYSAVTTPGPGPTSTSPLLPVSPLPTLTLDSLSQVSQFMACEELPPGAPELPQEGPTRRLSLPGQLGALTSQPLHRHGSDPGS

Compound | hERG current change (%, negative = inhibition) at 10uM
CS(=O)(=O)C1=NSC2=NC(=O)/C(=C\c3ccc(OS(=O)(=O)c4ccccc4)cc3)C(=N)N21 | 21.5%
COc1ccc(NC2CCCN(C(=O)c3cccc(C(F)(F)F)c3)C2)cc1OC (centres unmarked) | 0.146%
CCOc1ccc(OCc2ccc(C(=O)N3CCOCC3)cc2)cc1 | 9.68%
O=C(COC(=O)c1ccc(O)cc1)Nc1ccc(Cl)cc1C(=O)c1ccccc1 | -4.15%
Cc1cc(C=NCCO)c(C)n1-c1cc(Cl)ccc1Cl | -3.53%
Cc1nn(Cc2ccccc2)c(Cl)c1C(=O)OCC(=O)Nc1cccc2ccccc12 | 8.73%
O=C(O)c1c[nH]c2ccc(S(=O)(=O)N(CCCl)CCCl)cc12 | 10.9%
CCOC(=O)c1c(C)[nH]c(C=O)c1Cc1cccc(Cl)c1 | 6.47%
COc1ccc(Cl)cc1NC(=O)CN(C)CC(=O)Nc1ccc(C)cc1Br | 6.5%
Cn1nccc1/C=N\NC(=O)c1ccc(Cl)cc1 | 26.9%
O=C1CC(N2CCN(Cc3ccccc3)CC2)C(=O)N1CCc1ccccc1 (centres unmarked) | -27.6%
CC(=O)c1cccc(N(C(=O)CNC(=O)c2ccco2)C(C(=O)NC2CCCC2)c2ccncc2)c1 (centres unmarked) | 0.635%
CC(C)C[C@H](N)c1nnc(S(=O)(=O)Cc2cccc(F)c2)o1.Cl | 4.34%
Cc1ccccc1NC(=O)c1cc[n+]([O-])cc1 | 27.6%
C=CCOC(=O)C1=C[C@H](c2ccc(Br)cc2)[C@@H](CCCO)[C@H](OCC)O1 | -55.3%
CC(=O)c1cc(C#N)c(NCCCN(C)C)nc1C | 5.02%
CC(=O)N1CCN(Cc2ccc(Cl)nc2)CC1 | 18.5%
CCCOc1ccc(C2NC(=O)NC(c3ccccc3)=C2C(C)=O)cc1OCC (centres unmarked) | -5.34%
Cc1cc(C)c(S(=O)(=O)Nc2nnc(C)s2)c(C)c1 | 1.72%
CN1CCN(C(=O)/C(=C/c2cccc([N+](=O)[O-])c2)NC(=O)c2ccccc2)CC1 | -72.6%
O=C(COC(=O)c1ccccc1Br)NCc1ccccc1 | -8.23%
O=C(CSc1nc2ccccc2o1)N1CCN(C(=O)c2ccco2)CC1 | -33.1%
COc1ccccc1N1CCN(C(=O)c2oc3ccc(F)cc3c2C)CC1 | 2.12%

Compound | hERG current change (%, negative = inhibition) at 10uM
CCOc1cc(N2CCOCC2)c(OCC)cc1NC(=O)Cc1cn2ccsc2n1 | 3.99%
CSc1ccc(CNC(C)C(O)c2ccccc2)cc1.Cl (centres unmarked) | -51.4%
Cc1ccc(S(=O)(=O)CCC(=O)Nc2ccccc2C)cc1 | 11.6%
C/C(CC(=O)NC1CCCCC1)=N\NC(=O)Cc1ccc(-c2ccccc2)cc1 | 25.6%
CCCc1cc(=O)[nH]c(Nc2ccc(OC)c(Cl)c2)n1 | -2.06%
Cc1ccc(C(=O)NCCNC(=O)Cc2ccccc2)cn1 | 27.4%
CCOC(=O)CC(NC(=O)c1cc2cc(Cl)cc(Cl)c2oc1=O)c1cccc([N+](=O)[O-])c1 (centres unmarked) | -66.8%
CN(C(=O)COc1nnc(-c2cccs2)c(-c2cccs2)n1)c1ccccc1 | -34.3%
CC(O)Cn1c(N2CCCC2)nc2c1c(=O)[nH]c(=O)n2C (centres unmarked) | 17.7%
O=C(Cn1cnc2c(nnn2-c2ccc(F)cc2)c1=O)NCC1CCCO1 (centres unmarked) | 3.12%
CCOc1ccc(Nc2ccc(C(=O)O)cc2[N+](=O)[O-])cc1 | 18.7%
CCN(CC)S(=O)(=O)c1ccc(Oc2ccccc2OC)cc1 | -65.3%
O=c1[nH]c(SCc2ccc(F)cc2)nc2c1cnn2-c1ccc(F)cc1 | 12.3%
C=CC[N+]1(C)CC[C@]23c4c5ccc(O)c4O[C@H]2C(=O)CC[C@@]3(O)[C@H]1C5.[I-] (some centres unmarked) | 17.8%
CCn1c(=O)c(C(=O)NNC(=O)c2ccccc2F)c(O)c2ccccc21 | 3.3%
Cc1ccc(-c2nc(CN(C)C)cc(CN(C)C)c2O)cc1.Cl | -14.6%
c1ccc(-n2ncc3cccnc32)cc1 | 8.53%
CC(C)CNS(=O)(=O)c1ccccc1C(=O)N1CCCCC1 | -0.884%
O=c1c([N+](=O)[O-])c(NCCN2CCCCCC2)c2ccccc2n1-c1ccccc1 | -3.63%
CCCC(=O)Nc1nn(C)c2nc3c(C)cccc3cc12 | -7.99%
CC1(C)CC(=O)C(C2C3=C(CC(C)(C)CC3=O)OC3=C2C(=O)CC(C)(C)C3)=C(O)C1 | 0.256%
COc1cc(SC)ccc1C(=O)NCCOc1ccc(C)c(C)c1 | -9.71%
O=C(COc1ccc([N+](=O)[O-])cc1)Nc1ccc2c(c1)CCC2 | -41.3%

Compound | hERG current change (%, negative = inhibition) at 10uM
c1ccc(CCNc2ccc3nncn3n2)cc1 | 7.69%
CC1(C)CC(=O)C2=C(C1)OC(=O)C2(NC(=O)c1cccs1)C(F)(F)F (centres unmarked) | 7.01%
CNC(=O)C1CCN(S(=O)(=O)c2c(C)noc2/C=C/c2ccccc2F)CC1 | 11.4%
FC(F)Oc1ccc(C2N=C(c3ccccc3)NO2)cc1 (centres unmarked) | -25.2%
COc1cccc(NC(=O)COc2ccc(S(=O)(=O)NC(C)C)cc2)c1 | 9.26%
COc1ccccc1CNC(=O)c1cc(=O)c2ccccc2o1 | 0.798%
O=C(Cn1c(=O)sc2ccccc21)NCCOc1ccccc1F | 4.46%
Cc1ccc(-c2n[nH]c(=S)n2/N=C/c2cccn2C)cc1 | 16%
Brc1ccc2c(c1)OCCOCCOCCOCCOCCOCCO2 | -70.8%
COc1ccc(N(C)S(=O)(=O)c2cccc(C(=O)Nc3nnc(C)s3)c2)cc1 | -3.56%
CC1CC(C)CN(C(=O)c2nn(C)c3c2CS(=O)(=O)c2ccccc2-3)C1 (centres unmarked) | -12.7%
c1csc(-c2nc3c4ccccc4c4ccccc4c3[nH]2)c1 | 6.64%
CC/C(=N\N=C1\SC(C)C(=O)N1Cc1ccco1)c1ccccc1 (centres unmarked) | 4.18%
Cc1cc(C(F)(F)F)n(-c2nc(C(=O)NNS(=O)(=O)c3ccccc3[N+](=O)[O-])cs2)n1 | -1.01%
Cc1cc(C2=NNC(=NC3CCCCC3)SC2)c(C)n1-c1c(C)n(C)n(-c2ccccc2)c1=O | 14%
Nc1c(C(=O)NC2CCCC2)c2nc3ccccc3nc2n1/N=C/c1cccnc1 | -4.32%
O=c1cnc2ccccc2n1Cc1ccccc1C(F)(F)F | 18.5%
O=C(/C=C/c1ccccc1Cl)NCc1ccco1 | -21.8%
COc1ccccc1/C=C1\N=C(C(C)(C)C)OC1=O | 1.88%
Cc1nc2sc(C(c3ccccc3)N3CCN(C)CC3)c(O)n2n1 (centres unmarked) | -6.85%
CC(C)(C)c1ccc(C(=O)NNc2cc(N3CCOCC3)nc(N3CCOCC3)n2)cc1 | -11.6%
CC/C(C)=N/Nc1cccc([N+](=O)[O-])c1 | 23%
Clc1ccc(CSc2nnc(-c3sccc3-n3cccc3)o2)cc1 | -3.91%

Compound | hERG current change (%, negative = inhibition) at 10uM
Cc1cccc(C)c1-n1c(SCC(=O)Nc2ccc(C(=O)O)cc2)nnc1-c1cccc(S(=O)(=O)N(C)C)c1 | 15.1%
CC(C)Cc1nnc(NC(=O)CCC(=O)N2CCN(S(=O)(=O)c3ccccc3)CC2)s1 | 0.00048%
O=C(O)C(Cc1ccccc1)N1CCS(=O)(=O)CC1 (centres unmarked) | 6.07%
O=C(O)c1ccccc1-n1cnnn1 | -7.79%
CN(C)c1ccc(C(=S)NC2CCCCC2)cc1 | 16.3%
O=c1[nH]c(=O)n(-c2ccccc2)c(O)c1/C=C/C=Nc1ccccc1 | 13.9%
O=C1c2cccc(OCC(=O)N3CCCc4ccccc43)c2CCN1Cc1ccc(Br)cc1 | 6.7%
CC(C)(C)c1nnc2sc(SCC(=O)c3ccccc3)nn2c1=O | 1.34%
CCOc1ccc(C(=O)Nc2cccc(C(=O)O)c2)cc1Cl | 9.32%
CCOc1c2ccc(C(=O)N[C@H](C)C3CCCCC3)cc2nn1CC | -9.54%
CC1CCCN(CC(O)CN)C1 (centres unmarked) | 17.3%
Cc1nc(-c2coc3cc(C)c(N=O)c(O)c3/c2=N\N)cs1 | 10.2%
CC1=CC(C)C(C(=O)O)C(C(=O)N2CCN(C)CC2)C1 (centres unmarked) | 26.3%
NNC(=O)c1cc(-c2ccco2)[nH]n1 | 10.5%
CN1CCN(S(=O)(=O)c2ccc([N+](=O)[O-])cc2)CC1 | -14.6%
COc1ccccc1CC(=O)NCc1ccc2c(c1)OCO2 | 24.2%
O=C(c1cc(-c2ccccc2)nn1-c1ccccc1)N1CCN(S(=O)(=O)c2ccc(F)cc2)CC1 | -7.73%
CC(=O)N(CCC1(C(C)C)CCOC(C)(C)C1)Cc1ccco1 (centres unmarked) | -4.98%
COc1ccc(C(=O)N/C(=C\c2ccccc2)C(=O)NC(CC(C)C)C(=O)O)cc1 (centres unmarked) | 30.7%
COc1ccc(-c2nc(C#N)c(N3CCOCC3)o2)cc1OC | -7.47%
